# T1: Cyno TfR ECD Avi-His (cynomolgus macaque, UniProt Q5RDH6 89-760 (Pongo abelii entry), biotin on the Avi tag (BirA) where captured on streptavidin)
# T1 construct: also called Cyno TfR Avi-His; cyno TfR Avi-His
# T1 chain: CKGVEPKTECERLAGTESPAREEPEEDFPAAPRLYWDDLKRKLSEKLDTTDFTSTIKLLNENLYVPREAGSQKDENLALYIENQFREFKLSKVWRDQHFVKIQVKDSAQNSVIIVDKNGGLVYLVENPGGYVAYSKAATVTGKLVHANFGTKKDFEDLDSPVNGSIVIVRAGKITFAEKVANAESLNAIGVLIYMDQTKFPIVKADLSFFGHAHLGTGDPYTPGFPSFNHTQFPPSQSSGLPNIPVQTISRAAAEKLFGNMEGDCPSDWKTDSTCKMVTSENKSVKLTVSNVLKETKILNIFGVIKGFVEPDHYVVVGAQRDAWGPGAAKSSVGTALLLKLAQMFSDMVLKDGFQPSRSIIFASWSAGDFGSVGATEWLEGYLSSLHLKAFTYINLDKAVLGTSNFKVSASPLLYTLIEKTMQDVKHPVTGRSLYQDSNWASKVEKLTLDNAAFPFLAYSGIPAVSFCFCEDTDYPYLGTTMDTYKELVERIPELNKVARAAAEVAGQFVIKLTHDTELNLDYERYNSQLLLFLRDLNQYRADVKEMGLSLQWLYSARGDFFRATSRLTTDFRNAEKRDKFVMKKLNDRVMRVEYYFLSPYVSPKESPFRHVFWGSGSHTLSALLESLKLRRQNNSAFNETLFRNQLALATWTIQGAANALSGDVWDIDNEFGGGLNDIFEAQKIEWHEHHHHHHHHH
# T2: huTfR Apical Domain-Avi-His (human, biotin on the Avi tag (BirA) where captured on streptavidin)
# T2 construct: also called huTfR apical Avi-His; hTfR Apical
# T2 chain: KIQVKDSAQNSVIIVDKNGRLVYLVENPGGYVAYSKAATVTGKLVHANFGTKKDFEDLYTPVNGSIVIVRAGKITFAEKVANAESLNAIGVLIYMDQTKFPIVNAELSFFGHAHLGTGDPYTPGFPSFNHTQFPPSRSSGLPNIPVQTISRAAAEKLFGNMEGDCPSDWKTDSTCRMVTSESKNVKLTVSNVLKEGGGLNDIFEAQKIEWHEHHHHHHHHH
# Columns and labels:
# [1] = biological target: T3, Full length human TfR on CHO cells (human, UniProt P02786); experiment: FACS MFI
# T3 construct: also called CHO + huTfR; CHO + hTfR
# T3 sequence (P02786 whole entry): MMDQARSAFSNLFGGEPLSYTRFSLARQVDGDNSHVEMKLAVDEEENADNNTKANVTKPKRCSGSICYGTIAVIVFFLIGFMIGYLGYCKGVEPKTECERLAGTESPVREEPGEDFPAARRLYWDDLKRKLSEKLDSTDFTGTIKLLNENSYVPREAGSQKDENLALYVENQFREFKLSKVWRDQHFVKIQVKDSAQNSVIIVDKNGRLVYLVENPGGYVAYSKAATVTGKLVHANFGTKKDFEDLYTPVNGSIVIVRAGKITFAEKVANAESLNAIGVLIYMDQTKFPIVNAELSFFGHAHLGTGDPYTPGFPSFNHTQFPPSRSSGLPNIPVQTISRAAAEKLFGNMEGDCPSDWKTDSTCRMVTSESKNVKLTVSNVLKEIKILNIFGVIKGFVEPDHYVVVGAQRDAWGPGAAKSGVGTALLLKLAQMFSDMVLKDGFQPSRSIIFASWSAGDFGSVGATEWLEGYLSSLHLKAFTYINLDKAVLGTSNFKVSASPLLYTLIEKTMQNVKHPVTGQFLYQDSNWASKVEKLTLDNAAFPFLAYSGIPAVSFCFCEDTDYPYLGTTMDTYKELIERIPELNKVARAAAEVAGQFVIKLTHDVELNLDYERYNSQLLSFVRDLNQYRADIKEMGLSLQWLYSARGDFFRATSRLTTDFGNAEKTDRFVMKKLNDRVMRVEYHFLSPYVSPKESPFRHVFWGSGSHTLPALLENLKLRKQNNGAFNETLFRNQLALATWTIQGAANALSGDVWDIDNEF
# [2] = biological target: T4, Mouse TfR (muTfR) ECD Avi-His (mouse, UniProt Q62351, biotin on the Avi tag (BirA) where captured on streptavidin); experiment: ELISA OD450
# T4 construct: also called MuTfR Avi-His
# [3] = biological target: T1, Cyno TfR ECD Avi-His; experiment: ELISA OD450
# [4] = biological target: T2, huTfR Apical Domain-Avi-His; experiment: ELISA OD450
Binder,fold over CHO parental [1],fold over isotype control [2],fold over isotype control [3],fold over isotype control [4]
"TfR24 2+1 anti-TfR bispecific antibody (bispecific antibody, human IgG1, kappa, 2+1) heavy 1: EVRLLESGGGLVQPGGSLRLSCAASGFTFSNYAMGWVRQAPGKGLEWVSAISGSGGSTYYADSVKGRFTTSRDDSKNALYLQMNSLRAEDTAVYYCARGGPGWYAADVWGQGTTVTVSSASTKGPSVFPLAPSSKSTSGGTAALGCLVKDYFPEPVTVSWNSGALTSGVHTFPAVLQSSGLYSLSSVVTVPSSSLGTQTYICNVNHKPSNTKVDKKV[here human IgG1 Fc with changes without letters]GGGGSGGGGSGGGGSQVQLQQSGPELVKPGTSVKMSCKASGYTFTSYYIHWVKQRPGQGLEWIGWIYPGDDNTHYNENFKGKTTLTADKSSSTAYMLLSSLTSEDSAIYFCARDYYGRFAYWGQGTLVTVSAGGSEGKSSGSGSESKSTGGSDIVMTQSPSSLTVTAGERVTMSCKSSQSLLNSGNQKNYLTWFQQKPGQPPKLLIYWASTRESGVPDRFTGSGSGTDFTVTISSVQAEDLAVYYCQNDYGYPLTFGAGTKLELK heavy 2: EVRLLESGGGLVQPGGSLRLSCAASGFTFSNYAMGWVRQAPGKGLEWVSAISGSGGSTYYADSVKGRFTTSRDDSKNALYLQMNSLRAEDTAVYYCARGGPGWYAADVWGQGTTVTVSS[here human IgG1 constant region with changes without letters] light: DIQMTQSPSSLSASVGDRVTITCRASQSISSYLNWYQQKPGKAPKLLIYAASSLQSGVPSRFSGSGSGTDFTLTISSLQPEDFATYYCQQADLPAFAFGGGTKVEIKRTVAAPSVFIFPPSDEQLKSGTASVVCLLNNFYPREAKVQWKVDNALQSGNSQESVTEQDSKDSTYSLSSTLTLSKADYEKHKVYACEVTHQGLSSPVTKSFNRGEC",11 fold,1 fold,1 fold,3 fold
"TfR25 2+1 anti-TfR bispecific antibody (bispecific antibody, human IgG1, kappa, 2+1) heavy 1: EVRLLESGGGLVQPGGSLRLSCAASGFTFSNYAMGWVRQAPGKGLEWVSAISGSGGSTYYADSVKGRFTTSRDDSKNALYLQMNSLRAEDTAVYYCARGGPGWYAADVWGQGTTVTVSSASTKGPSVFPLAPSSKSTSGGTAALGCLVKDYFPEPVTVSWNSGALTSGVHTFPAVLQSSGLYSLSSVVTVPSSSLGTQTYICNVNHKPSNTKVDKKV[here human IgG1 Fc with changes without letters]GGGGSGGGGSGGGGSQVQLQQSGPELVKPGTSVKMSCKASGYTFTNYYIHWMKQRPGQGLEWIGWIYPGDGNTHYNERFKGKTTLTADKSSSTVYMFLTSLTSEDSAIYFCAKDKDMPGMDYWGQGTSVTVSSGGSEGKSSGSGSESKSTGGSDMVMTQSPSSLTVTAGEKVTMSCKSSQSLFNSENQKNYLTWYQQKPGQPPKLLISWASTRESGVPDRFTGSGSGTDFTLTINSVQAEDLAVYYCQNDYSYPLTFGAGTKLELK heavy 2: EVRLLESGGGLVQPGGSLRLSCAASGFTFSNYAMGWVRQAPGKGLEWVSAISGSGGSTYYADSVKGRFTTSRDDSKNALYLQMNSLRAEDTAVYYCARGGPGWYAADVWGQGTTVTVSS[here human IgG1 constant region with changes without letters] light: DIQMTQSPSSLSASVGDRVTITCRASQSISSYLNWYQQKPGKAPKLLIYAASSLQSGVPSRFSGSGSGTDFTLTISSLQPEDFATYYCQQADLPAFAFGGGTKVEIKRTVAAPSVFIFPPSDEQLKSGTASVVCLLNNFYPREAKVQWKVDNALQSGNSQESVTEQDSKDSTYSLSSTLTLSKADYEKHKVYACEVTHQGLSSPVTKSFNRGEC",23 fold,1 fold,1 fold,12 fold
"TfR29 2+1 anti-TfR bispecific antibody (bispecific antibody, human IgG1, kappa, 2+1) heavy 1: EVRLLESGGGLVQPGGSLRLSCAASGFTFSNYAMGWVRQAPGKGLEWVSAISGSGGSTYYADSVKGRFTTSRDDSKNALYLQMNSLRAEDTAVYYCARGGPGWYAADVWGQGTTVTVSSASTKGPSVFPLAPSSKSTSGGTAALGCLVKDYFPEPVTVSWNSGALTSGVHTFPAVLQSSGLYSLSSVVTVPSSSLGTQTYICNVNHKPSNTKVDKKV[here human IgG1 Fc with changes without letters]GGGGSGGGGSGGGGSQVQLQQSGPQLVRPGASVKISCKASGYSFTNYWLHWVKQRPGQGLEWIGMIDPSDSETRLNQKFKDKATLTVDKSSSTAYMQLSSPTSEDSAVYYCARWGGGYYGFAYWGQGTLVTVSAGGSEGKSSGSGSESKSTGGSQIVLTQSPAIMSASPGEKVTMTCSASSSISYMHWYQQKPGTSPKRWIYDTSKLASGVPARFSGSGSGTSYSLTISSMEAEDAATYYCHQRSSYTFGGGTKLEIK heavy 2: EVRLLESGGGLVQPGGSLRLSCAASGFTFSNYAMGWVRQAPGKGLEWVSAISGSGGSTYYADSVKGRFTTSRDDSKNALYLQMNSLRAEDTAVYYCARGGPGWYAADVWGQGTTVTVSS[here human IgG1 constant region with changes without letters] light: DIQMTQSPSSLSASVGDRVTITCRASQSISSYLNWYQQKPGKAPKLLIYAASSLQSGVPSRFSGSGSGTDFTLTISSLQPEDFATYYCQQADLPAFAFGGGTKVEIKRTVAAPSVFIFPPSDEQLKSGTASVVCLLNNFYPREAKVQWKVDNALQSGNSQESVTEQDSKDSTYSLSSTLTLSKADYEKHKVYACEVTHQGLSSPVTKSFNRGEC",1 fold,1 fold,1 fold,1 fold
"TfR30 2+1 anti-TfR bispecific antibody (bispecific antibody, human IgG1, kappa, 2+1) heavy 1: EVRLLESGGGLVQPGGSLRLSCAASGFTFSNYAMGWVRQAPGKGLEWVSAISGSGGSTYYADSVKGRFTTSRDDSKNALYLQMNSLRAEDTAVYYCARGGPGWYAADVWGQGTTVTVSSASTKGPSVFPLAPSSKSTSGGTAALGCLVKDYFPEPVTVSWNSGALTSGVHTFPAVLQSSGLYSLSSVVTVPSSSLGTQTYICNVNHKPSNTKVDKKV[here human IgG1 Fc with changes without letters]GGGGSGGGGSGGGGSQVQLQQSGPQLVRPGASVKISCKASGYSFTNYWLHWVKQRPGQGLEWIGMIDPSDSETRLNQKFKDKATLTVDKSSSTAYMQLSSPTSEDSAVYYCARWGGGYYGFAYWGQGTLVTVSAGGSEGKSSGSGSESKSTGGSDIVMTQSQKFMSTSVGDRVSITCKASQNVRTAVAWYQQKPGQSPKALIYLASNRHTGVPDRFTGSGSGTDFTLTISNVQSEDLADYFCLQHWNYPWTFGGGTKLEIK heavy 2: EVRLLESGGGLVQPGGSLRLSCAASGFTFSNYAMGWVRQAPGKGLEWVSAISGSGGSTYYADSVKGRFTTSRDDSKNALYLQMNSLRAEDTAVYYCARGGPGWYAADVWGQGTTVTVSS[here human IgG1 constant region with changes without letters] light: DIQMTQSPSSLSASVGDRVTITCRASQSISSYLNWYQQKPGKAPKLLIYAASSLQSGVPSRFSGSGSGTDFTLTISSLQPEDFATYYCQQADLPAFAFGGGTKVEIKRTVAAPSVFIFPPSDEQLKSGTASVVCLLNNFYPREAKVQWKVDNALQSGNSQESVTEQDSKDSTYSLSSTLTLSKADYEKHKVYACEVTHQGLSSPVTKSFNRGEC",261 fold,1 fold,5 fold,40 fold
"TfR32 2+1 anti-TfR bispecific antibody (bispecific antibody, human IgG1, kappa, 2+1) heavy 1: EVRLLESGGGLVQPGGSLRLSCAASGFTFSNYAMGWVRQAPGKGLEWVSAISGSGGSTYYADSVKGRFTTSRDDSKNALYLQMNSLRAEDTAVYYCARGGPGWYAADVWGQGTTVTVSSASTKGPSVFPLAPSSKSTSGGTAALGCLVKDYFPEPVTVSWNSGALTSGVHTFPAVLQSSGLYSLSSVVTVPSSSLGTQTYICNVNHKPSNTKVDKKV[here human IgG1 Fc with changes without letters]GGGGSGGGGSGGGGSQVQLQQSGADLVRPGTSVKVSCKASGNAFSNYLIEWVKQRPGQGLEWIGVINPGSGETNYNEKFKGKATLTADKSSSTAYMQLSSLTSDDSAVYFCAIRYDGPLLDHWGQGTSVTVSSGGSEGKSSGSGSESKSTGGSSIVMTQTPKFLLVSAGDRVTITCKASQSVSNDVAWFQQKPGQSPKLLIYYASNRYTGVPDRFTGSGYGTDFTFTIRNVQAEDLAVYFCQQDYISPTFGAGTKLELK heavy 2: EVRLLESGGGLVQPGGSLRLSCAASGFTFSNYAMGWVRQAPGKGLEWVSAISGSGGSTYYADSVKGRFTTSRDDSKNALYLQMNSLRAEDTAVYYCARGGPGWYAADVWGQGTTVTVSS[here human IgG1 constant region with changes without letters] light: DIQMTQSPSSLSASVGDRVTITCRASQSISSYLNWYQQKPGKAPKLLIYAASSLQSGVPSRFSGSGSGTDFTLTISSLQPEDFATYYCQQADLPAFAFGGGTKVEIKRTVAAPSVFIFPPSDEQLKSGTASVVCLLNNFYPREAKVQWKVDNALQSGNSQESVTEQDSKDSTYSLSSTLTLSKADYEKHKVYACEVTHQGLSSPVTKSFNRGEC",242 fold,1 fold,1 fold,30 fold

# Reference: patent publication US20250270339A1 (Alector, published 2025)
